Data on three compounds can be found in patent US11542275B2, “Substituted imidazolidin-2-one derivatives as PRMT5 inhibitors” (Aurigene Discovery Technologies Limited, priority 2018, dated 2023).

The target of the assay is PRMT5/MEP50 Complex (Homo sapiens (Human), UniProt O14744). Kind of assay: PRMT5 inhibition based on TR-FRET assay. The format is biochemical. Particulars: 32 nM PRMT5:MEP50 complex, 50 nM Histone-H4 peptide, 1 μM SAM, 90 minutes at room temperature. The source says:
Protein arginine methyltransferase 5 (PRMT5) is a type II arginine methyltransferase that catalyze mono- and symmetric demethylation on arginine residues of histone or non-histone proteins in presence of S-adenosylmethionine (AdoMet or SAM) a cofactor responsible for donating the methyl group. PRMT5 is reported to be overexpressed in several human cancers. To identify compounds that inhibit the PRMT5 and decrease its activity, a TR-FRET based assay has been established. Time-resolved fluorescence resonance energy transfer (TR-FRET) HTS assays are homogeneous proximity assays where the interaction of two dye-labeled binding partners is detected by the energy transfer between a donor and an acceptor dye, and the subsequent light emission by the acceptor dye. PRMT5 catalyzes Histone H4 peptide which is biotin tagged to the Lysine amino acid at carboxyl end, in presence of S-adenosyl-1-methionine (SAM) to methylate the peptide. The antibody specific to mono methylated H4 peptide (H4R3) with Ig conjugate binds to the methylated peptide, indirectly binding to the Europium lanthanide. SureLight Allophycocyanin-Streptavidin binds to the biotin tag of the peptide, therefore accepting the energy transferred from the Europium lanthanide. This energy transfer between Europium to SureLight Allophycocyanin is a direct measure of the activity/inhibition of the PRMT5 enzyme.
Assay buffer: 20 mM BICINE (pH 7.6), 25 mM NaCl, 2 mM DTT, 0.01% Tween-20 and 0.01% BSA.
The compound dilutions were prepared as 7.5% DMSO stock solutions in assay buffer. To 2 μL (7.5×) of test compound, 5 μL of PRMT5 enzyme prepared in assay buffer (Final concentration of 32 nM in 15 μL reaction volume) was added and allowed for 30 minutes pre-incubation time in a white polystyrene 384-well plate at room temperature. […] The plates were then read on Victor-3 with Excitation at 340 nm and Emissions collected at 615 and 665 nm in TR-FRET protocol. […]
For orientation: In TR-FRET formats the signal depends on donor and acceptor labels being close together.

What is called IC50 is the concentration that gives 50% inhibition. Higher therefore signals weaker potency in that assay.

The compound `O=C1N(Cc2ccc(C3CCOCC3)cn2)CCN1CC(O)CNC1Cc2ccccc2C1` (racemic) [Compound 88, 1-(3-((2,3-dihydro-1H-inden-2-yl)amino)-2-hydroxypropyl)-3-((5-(tetrahydro-2H-pyran-4-yl)pyridin-2-yl)methyl)imidazolidin-2-one] registered an IC50 of 22 nM. This counts as double-digit nanomolar. In the case of `O=C1N(Cc2ccc(C3COC3)cn2)CCN1C[C@H](O)CN1CCc2ccccc2C1` [Compound 78, (R)-1-(3-(3,4-dihydroisoquinolin-2(1H)-yl)-2-hydroxypropyl)-3-((5-(oxetan-3-yl)pyridin-2-yl)methyl)imidazolidin-2-one] it was 119 nM. In the case of `CC(=O)N1CCN(c2ccc(CN3CCN(CC(O)CN4CCc5cccc(F)c5C4)C3=O)nc2)CC1` (stereo not drawn) [Compound 81, 1-((5-(4-acetylpiperazin-1-yl)pyridin-2-yl)methyl)-3-(3-(8-fluoro-3,4-dihydroisoquinolin-2(1H)-yl)-2-hydroxypropyl)imidazolidin-2-one] it was 19 nM.
